From PubChem BioAssay AID330 (DTP/NCI, 2004)
Toxic doses and inconclusive results are not listed. Certain results were filed several times, with different values. This is not the full list of results. There may be further records. Values given together differ for a reason that is not stated; they may come from other doses, times, organisms or constructs than stated.

Tested on: P388 leukemia ip, CD2F1 mice, survival T/C
Test: NCI In Vivo Anticancer Drug Screen. Data for tumor model P388 Leukemia (intraperitoneal) in CD2F1 (CDF1) mice
Conditions: endpoint: median survival time, higher = longer survival

CC(=O)[C@]1(O)Cc2c(O)c3c(c(O)c2[C@@H](OC2CC(N)C(O)C(C)O2)C1)C(=O)c1c(O)cccc1C3=O (some centres undefined)
T/C (dose: 0.32 mg/kg/injection, schedule: Q04DX003 (ip), vehicle: water): 99 % of control, 107 % of control, 166 % of control | T/C (dose: 1.28 mg/kg/injection, schedule: Q04DX003 (ip), vehicle: water): 90 % of control and 152 % of control

Cc1ccc(-c2cc(=O)c3cccc(CC(=O)O)c3o2)cc1
T/C (dose: 200.0 mg/kg/injection, schedule: Q01DX005 (ip), vehicle: Klucel (hydroxypropylcellulose) (HPC)): 118 % of control and 151 % of control

NNc1c(C(N)=O)c2c(N)ncnc2n1C1OC(CO)C(O)C1O (centres undefined)
T/C (dose: 25.0 mg/kg/injection, schedule: Q01DX005 (ip), vehicle: Klucel (hydroxypropylcellulose) (HPC)): 90 % of control and 177 % of control
